The results in this text go back to a collection of fitness landscapes (doi:10.1126/science.1257360).

Some of the results follow.

Sequences and labels used below:
B1: PhoQ; a variant is named by its letters at X, in order, P23837 (parent)
chain: MKKLLRLFFPLSLRVRFLLATAAVVLVLSLAYGMVALIGYSVSFDKTTFRLLRGESNLFYTLAKWENNKLHVELPENIDKQSPTMTLIYDENGQLLWAQRDVPWLMKMIQPDWLKSNGFHEIEADVNDTSLLLSGDHSIQQQLQEVREDDDDAEMTHSVAVNVYPATSRMPKLTIVVVDTIPVELKSSYMVWSWFIYVLSANLLLVIPLLWVAAWWSLRPIEALAKEVRELEEHNRELLNPATTRELTSLVRNLNRLLKSERERYDKYRTTLTDLTHSLKTPLXXLQXXLRSLRSEKMSVSDAEPVMLEQISRISQQIGYYLHRASMRGGTLLSRELHPVAPLLDNLTSALNKVYQRKGVNISLDISPEISFVGEQNDFVEVMGNVLDNACKYCLEFVEISARQTDEHLYIVVEDDGPGIPLSKREVIFDRGQRVDTLRPGQGVGLAVAREITEQYEGKIVAGESMLGGARMEVIFGRQHSAPKDE

Variants of B1 are the subject of this experiment. The experiment in a line: enrichment ratio after two sorts for PhoP signalling (ratio (wild type AVST 3.29)); higher = more functional. To be noted: with PhoP (E. coli).
Turning to VIQW, the enrichment ratio was at most 0.25. As for DTAI, the enrichment ratio is at most 0.25. Take KDYF: the enrichment ratio was at most 0.25.

On to SNMI, for which the enrichment ratio is 19.8. On to YQVL, for which the enrichment ratio was at most 0.25. With IGCW the figure was at most 0.25; with FIVQ, at most 0.25. As for SCAS, the enrichment ratio is 11. Regarding HQFV, the enrichment ratio was at most 0.25. As for KTCV, the enrichment ratio is at most 0.25. The result for KVPQ reads at most 0.25; that for KLSQ, at most 0.25; that for SNIG, 2.85. YWAF: the enrichment ratio is at most 0.25. With VVGL, the enrichment ratio is at most 0.25. Turning to RIVW, the enrichment ratio was at most 0.25. With NIFI the figure was at most 0.25; with QKPF, at most 0.25; with HAFW, at most 0.25. As to FFGY, the enrichment ratio was at most 0.25. Take QHYD: the enrichment ratio turned out to be 6.87. The result for GLTA reads at most 0.25.

With FSCE, the enrichment ratio was 2.81. On to RMPM, for which the enrichment ratio turned out to be 1.21. On to DSHF, for which the enrichment ratio was found to be 0.525. On to KQHF, for which the enrichment ratio is at most 0.25.

As to KYPF, the enrichment ratio is at most 0.25. Regarding TSEY, the enrichment ratio is at most 0.25. Regarding NQMR, the enrichment ratio was at most 0.25. IDLQ: the enrichment ratio is at most 0.25. Consider DMKY, for which the enrichment ratio is at most 0.25. Take RFNL: the enrichment ratio is at most 0.25.

In the case of MAWI, the enrichment ratio turned out to be 8.24. As for QYIT, the enrichment ratio is at most 0.25. Regarding RIQT, the enrichment ratio is at most 0.25. Take HWRC: the enrichment ratio was at most 0.25. Turning to KSLK, the enrichment ratio is at most 0.25. As for VPYA, the enrichment ratio is at most 0.25. Turning to RYNV, the enrichment ratio is at most 0.25. Turning to DAAD, the enrichment ratio was at most 0.25. For the variant VIEQ, the enrichment ratio is at most 0.25.

EDPQ: the enrichment ratio is at most 0.25. Consider KHDC, for which the enrichment ratio was at most 0.25. The result for NDPY reads at most 0.25; that for IRLH, at most 0.25. Regarding PCIM, the enrichment ratio is at most 0.25. Consider NMHY, for which the enrichment ratio was at most 0.25.

For the variant WMWY, the enrichment ratio is at most 0.25. Take RGEC: the enrichment ratio was at most 0.25. Turning to FLKK, the enrichment ratio was at most 0.25.

On to NRSW, for which the enrichment ratio was at most 0.25. The result for RPTL reads at most 0.25. In the case of HLNW, the enrichment ratio was at most 0.25. For the variant QWTL, the enrichment ratio was at most 0.25. As for DHTM, the enrichment ratio was at most 0.25.

Regarding HYAV, the enrichment ratio was at most 0.25.

As to INVG, the enrichment ratio is at most 0.25. In the case of DYTF, the enrichment ratio was at most 0.25. With RKIQ, the enrichment ratio is at most 0.25. On to WWIP, for which the enrichment ratio was at most 0.25. With ACWL the figure was at most 0.25. Consider TRLQ, for which the enrichment ratio was 6.73. Regarding PVNS, the enrichment ratio was at most 0.25. Consider IHNI, for which the enrichment ratio is at most 0.25. Regarding GDGS, the enrichment ratio is at most 0.25.

For the variant GCQP, the enrichment ratio is at most 0.25. In the case of FDWN, the enrichment ratio is at most 0.25.

As for WPNG, the enrichment ratio is at most 0.25.

Regarding AEDH, the enrichment ratio was at most 0.25. The result for KSEY reads at most 0.25; that for YRVP, at most 0.25; that for SITT, 6.9. GQNG: the enrichment ratio was at most 0.25. Turning to WFPS, the enrichment ratio is at most 0.25.

For QSIE, the enrichment ratio was at most 0.25. As for ERNC, the enrichment ratio was at most 0.25. Consider QHPK, for which the enrichment ratio was at most 0.25. Consider WNCK, for which the enrichment ratio was at most 0.25. With SMWN, the enrichment ratio is at most 0.25.

Regarding FRHL, the enrichment ratio is at most 0.25. For the variant STEA, the enrichment ratio was at most 0.25. As for ISFV, the enrichment ratio is at most 0.25.

With KVTT, the enrichment ratio was at most 0.25.

Take NTMD: the enrichment ratio was at most 0.25. As to ELSM, the enrichment ratio was at most 0.25.

For LDFA, the enrichment ratio is at most 0.25.

As to QRDK, the enrichment ratio is at most 0.25. With WFMP the figure was at most 0.25; with RGMA, at most 0.25.

With YAMY, the enrichment ratio was at most 0.25.

Turning to RCNS, the enrichment ratio is at most 0.25. Take TGHS: the enrichment ratio was 2.49. Take MHFT: the enrichment ratio is at most 0.25.

In the case of QDTN, the enrichment ratio is at most 0.25. In the case of ELYI, the enrichment ratio is at most 0.25. On to FKPM, for which the enrichment ratio was at most 0.25. Turning to IAWF, the enrichment ratio was at most 0.25. For the variant ELVG, the enrichment ratio was at most 0.25.

Turning to RKTK, the enrichment ratio is at most 0.25. For TLKH, the enrichment ratio is at most 0.25. As to IMKM, the enrichment ratio was at most 0.25. For VDIG, the enrichment ratio is at most 0.25.

Turning to WQNI, the enrichment ratio was at most 0.25.

Regarding FMVN, the enrichment ratio was at most 0.25. For the variant FAMP, the enrichment ratio was at most 0.25. Consider VVFN, for which the enrichment ratio was at most 0.25. With PIEQ the figure was at most 0.25.

With RAIL, the enrichment ratio was at most 0.25. Turning to IYAI, the enrichment ratio was at most 0.25.

Regarding WLFH, the enrichment ratio is at most 0.25. In the case of SFVC, the enrichment ratio was at most 0.25. The result for NEIK reads at most 0.25. As to KRLR, the enrichment ratio is at most 0.25.

As to MPHD, the enrichment ratio was at most 0.25. For the variant RYAV, the enrichment ratio was at most 0.25.

WVKA: the enrichment ratio is at most 0.25. Consider SRHF, for which the enrichment ratio is at most 0.25.

In the case of GWGV, the enrichment ratio was at most 0.25. As for KGVR, the enrichment ratio is at most 0.25. Take KQLK: the enrichment ratio is at most 0.25.

With KQYC, the enrichment ratio is at most 0.25. Regarding CSAD, the enrichment ratio is at most 0.25. In the case of KAPS, the enrichment ratio was at most 0.25. ATAW: the enrichment ratio came out at 3.44.

Consider IWKM, for which the enrichment ratio is at most 0.25. As for SFNP, the enrichment ratio is at most 0.25. The result for DWTH reads at most 0.25; that for WYES, at most 0.25. The result for MPEA reads at most 0.25; that for RLIQ, at most 0.25; that for RFTA, at most 0.25. TCCK: the enrichment ratio was 21.6. Consider GRCY, for which the enrichment ratio was at most 0.25. With NAPT the figure was at most 0.25.

On to YYNG, for which the enrichment ratio is at most 0.25.

Consider FALT, for which the enrichment ratio amounted to 4.43. On to GLMD, for which the enrichment ratio is at most 0.25. In the case of VPCI, the enrichment ratio is at most 0.25.

On to PGCR, for which the enrichment ratio is at most 0.25. With LCSH, the enrichment ratio was at most 0.25. With FHFC, the enrichment ratio is at most 0.25.

Consider DTGT, for which the enrichment ratio was at most 0.25.

On to ANTG, for which the enrichment ratio was 1.58.

For the variant HSEY, the enrichment ratio was at most 0.25.

As to TPCE, the enrichment ratio is at most 0.25.

Take YCNG: the enrichment ratio was at most 0.25.

As to FLCC, the enrichment ratio was at most 0.25. Take FTLT: the enrichment ratio was found to be 2.51.

Turning to RGQC, the enrichment ratio was at most 0.25.

On to FAGH, for which the enrichment ratio came out at 0.439.

Turning to VPSC, the enrichment ratio was at most 0.25. Take ETFT: the enrichment ratio is at most 0.25.

In the case of AHTS, the enrichment ratio is at most 0.25.
